From article PMC9262583
These are yes or no findings as the source states them, for the method shown. For some of these results: In cells and extracts the contact can be indirect. Some binding calls cover weakened binding; strength is not graded here. For some of these results: Sequences can lack the tags named with a protein. Each block holds one molecule with its values, some of them ahead of it.

Sequences of proteins named here, by UniProt entry; tags and fusion partners are left off. A change or cut given only in a name is not applied to a line headed by its entry.
UniProt Q9NFU0: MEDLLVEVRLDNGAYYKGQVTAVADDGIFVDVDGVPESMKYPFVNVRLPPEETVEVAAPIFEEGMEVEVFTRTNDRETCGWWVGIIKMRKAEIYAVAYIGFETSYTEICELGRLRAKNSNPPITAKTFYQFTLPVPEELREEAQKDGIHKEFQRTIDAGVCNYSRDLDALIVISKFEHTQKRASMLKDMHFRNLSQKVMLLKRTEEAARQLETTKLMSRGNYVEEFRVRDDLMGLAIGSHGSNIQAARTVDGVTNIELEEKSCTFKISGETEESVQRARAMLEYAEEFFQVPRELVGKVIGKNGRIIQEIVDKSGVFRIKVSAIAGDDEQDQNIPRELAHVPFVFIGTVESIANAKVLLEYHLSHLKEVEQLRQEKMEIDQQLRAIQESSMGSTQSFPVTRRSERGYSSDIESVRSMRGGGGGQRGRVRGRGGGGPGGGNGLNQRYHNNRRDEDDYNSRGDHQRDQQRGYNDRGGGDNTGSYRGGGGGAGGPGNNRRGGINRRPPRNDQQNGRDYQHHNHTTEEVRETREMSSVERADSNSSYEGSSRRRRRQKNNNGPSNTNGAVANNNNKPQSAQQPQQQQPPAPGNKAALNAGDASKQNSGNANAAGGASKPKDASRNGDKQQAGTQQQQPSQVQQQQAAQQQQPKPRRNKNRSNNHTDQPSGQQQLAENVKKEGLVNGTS

What was measured:
[1] = molecular target: T1, His6-qRRM1 of Glo (residues 45–141) (Drosophila) (UniProt Q9VGH5); assay: pull-down; purified His6-qRRMs (50 μg each) immobilised on Ni-NTA agarose, incubated with late-ovary extract expressing GFP-dFMRP for 1.5 h at 4°C; anti-GFP immunoblot; only the target purified
T1 sequence: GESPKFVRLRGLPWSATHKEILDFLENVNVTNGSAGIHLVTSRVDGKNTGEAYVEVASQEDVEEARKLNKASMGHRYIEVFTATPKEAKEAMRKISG

[2] = molecular target: T2, His6-qRRM2 of Glo (residues 142–234) (Drosophila) (UniProt Q9VGH5); assay: as above
T2 sequence: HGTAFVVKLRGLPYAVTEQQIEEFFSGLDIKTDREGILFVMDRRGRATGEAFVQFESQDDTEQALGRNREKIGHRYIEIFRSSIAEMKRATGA

[3] = molecular target: T3, His6-qRRM3 of Glo (residues 475–562) (Drosophila) (UniProt Q9VGH5); assay: as above
T3 sequence: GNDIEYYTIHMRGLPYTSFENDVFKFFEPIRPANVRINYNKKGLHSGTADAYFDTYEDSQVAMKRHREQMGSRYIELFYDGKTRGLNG

[4] = molecular target: T1, His6-qRRM1 of Glo (residues 45–141) (Drosophila); assay: SEC; 2.5 μM ΔNT-dFMRP mixed with 20 μM qRRM domain in 20 mM HEPES-NaOH pH 8.0, 150 mM NaCl, 5 mM TCEP, 48 h at 4°C; Superdex 200 Increase 3.2/300; fractions on Coomassie-stained SDS-PAGE; both purified
[5] = molecular target: T2, His6-qRRM2 of Glo (residues 142–234) (Drosophila); assay: as above
[6] = molecular target: T3, His6-qRRM3 of Glo (residues 475–562) (Drosophila); assay: as above
[7] = molecular target: GFP-tagged dFMRP (GFP-dFMRP) (Drosophila) (UniProt Q9NFU0); assay: co-IP; anti-GFP immunoprecipitation from late-ovary extract in the presence of RNase; immunoblot with anti-dFMRP, anti-Glo or anti-GFP
[8] = molecular target: T2, His6-qRRM2 of Glo (residues 142–234) (Drosophila); assay: SEC; each qRRM domain alone at 20 μM in 20 mM HEPES-NaOH pH 8.0, 150 mM NaCl, 5 mM TCEP; Superdex 200 Increase 3.2/300; both purified
[9] = molecular target: T3, His6-qRRM3 of Glo (residues 475–562) (Drosophila); assay: as above
[10] = molecular target: T1, His6-qRRM1 of Glo (residues 45–141) (Drosophila); assay: as above

binding [1]: no binding
binding [2]: binds
binding [3]: no binding
Molecule: GFP-tagged dFMRP (GFP-dFMRP) (from UniProt Q9NFU0 1-684)

binding [5]: binds
Molecule: His6-ΔNT-dFMRP (residues 220–681) (from UniProt Q9NFU0 220-681) (domain or fragment)
binding [4]: no binding (tested: 2.5 μM ΔNT-dFMRP, 20 μM qRRM domain)
binding [6]: no binding (tested: 2.5 μM ΔNT-dFMRP, 20 μM qRRM domain)

binding [7]: binds
B1: Glorund (Glo), endogenous (protein, UniProt Q9VGH5 1-586)
chain: MSNADVQFNYGQQGNGDNFNDDSNQQQDEDDQYNEDGGGKIENVGESPKFVRLRGLPWSATHKEILDFLENVNVTNGSAGIHLVTSRVDGKNTGEAYVEVASQEDVEEARKLNKASMGHRYIEVFTATPKEAKEAMRKISGHGTAFVVKLRGLPYAVTEQQIEEFFSGLDIKTDREGILFVMDRRGRATGEAFVQFESQDDTEQALGRNREKIGHRYIEIFRSSIAEMKRATGAGGGVGGRPGPYDIRDRGANRGGNDFGGGRNDWGNNGNFGVGANNMLGFNNLPSLMNSGNFGNNQGGNNGNFGNNSGPSNFGNFGGGNNGGNSGNFGNDSGNSGNFGNFGNNGGGNFGGNNNGGGGFNSGNNFNSPGGVNNFGNNGGSNFGGNGGGGFNNGGNFVSSSGVGNFGPIGGGRNNNNGNFGNSGFGNFGGNNNVGSNFGGGNNGGGGGFNNGSNFGGGNSMGGGGNFGPIGGGRGNDIEYYTIHMRGLPYTSFENDVFKFFEPIRPANVRINYNKKGLHSGTADAYFDTYEDSQVAMKRHREQMGSRYIELFYDGKTRGLNGGEHGGGNGGGGMGNNGGGNFSRRI

binding [8]: no binding (tested: 20 μM)
B2: His6-qRRM2 of Glo (residues 142–234) (domain or fragment, UniProt Q9VGH5 142-234)
chain: HGTAFVVKLRGLPYAVTEQQIEEFFSGLDIKTDREGILFVMDRRGRATGEAFVQFESQDDTEQALGRNREKIGHRYIEIFRSSIAEMKRATGA

binding [9]: no binding (tested: 20 μM)
B3: His6-qRRM3 of Glo (residues 475–562) (domain or fragment, UniProt Q9VGH5 475-562)
chain: GNDIEYYTIHMRGLPYTSFENDVFKFFEPIRPANVRINYNKKGLHSGTADAYFDTYEDSQVAMKRHREQMGSRYIELFYDGKTRGLNG

binding [10]: no binding (tested: 20 μM)
B4: His6-qRRM1 of Glo (residues 45–141) (domain or fragment, UniProt Q9VGH5 45-141)
chain: GESPKFVRLRGLPWSATHKEILDFLENVNVTNGSAGIHLVTSRVDGKNTGEAYVEVASQEDVEEARKLNKASMGHRYIEVFTATPKEAKEAMRKISG
